Data as given in the supplement of paper PMC9446081.
Among all 39,000 compounds or so, about 220 (0.56%) showed activity. Some of the results follow.

Tested on: Escherichia coli K-12 BW25113
Assay: relative growth (OD600 normalised to plate interquartile mean) (fraction); higher = less growth inhibition, active = 0.2 or less
Conditions: 50 µM; LB; incubation time: overnight (16-24 h)
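Further: static incubation at 37 °C against the wild-type strain, values averaged over two biological replicates.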

SMILES	relative growth
C/C=C/c1ccc2c(c1)O[C@@H](CN(C)Cc1ccc(C(=O)O)cc1)[C@@H](C)CN([C@H](C)CO)S2(=O)=O	inactive: 0.979
COCC#Cc1ccc([C@@H]2[C@H](CO)N3C(=O)CN(C(=O)CN4CCOCC4)C[C@@H]23)cc1	inactive: 0.987
C/C=C/c1ccc([C@@H]2[C@@H](CO)N(S(=O)(=O)Cc3ccccc3)C23CN(C(=O)C2CCOCC2)C3)cc1	inactive: 1
C[C@H](CO)N1C[C@H](C)[C@H](CN(C)C(=O)C2CCOCC2)Oc2cc(-c3ccc(C(=O)N(C)C)cc3)ccc2S1(=O)=O	inactive: 0.98
O=C(C[C@@H]1C=C[C@@H](NC(=O)c2ccc(F)cc2)[C@H](CO)O1)NCc1ccncn1	inactive: 0.987
Cc1cc(C)c2ccc(Cl)nc2n1	inactive: 0.976
CNC(=O)Nc1ccc(-c2nc(N3C[C@H]4CC[C@@H](C3)O4)c3cnn(C4CCC5(CC4)OCCO5)c3n2)cc1	inactive: 1.02
C[C@H]1CN([C@@H](C)CO)S(=O)(=O)c2ccc(-c3ccc(C(=O)N(C)C)cc3)cc2O[C@H]1CN(C)C(=O)Cc1ccccn1	inactive: 0.985
CN(C)CCCNC(=O)C[C@@H]1C=C[C@H](NS(=O)(=O)c2ccccc2)[C@H](CO)O1	inactive: 1
Cc1ccc(S(=O)(=O)Nc2ccc3c(c2)C(=O)N([C@H](C)CO)C[C@@H](C)[C@@H](CN(C)S(C)(=O)=O)O3)cc1	inactive: 0.999
COc1ccc(S(=O)(=O)N(C)C[C@H]2Oc3ccc(NS(=O)(=O)c4ccc(C)cc4)cc3CC(=O)N([C@@H](C)CO)C[C@@H]2C)cc1	inactive: 1.01
CCOC(=O)/C(=N/O)c1csc(N)n1	inactive: 0.997
C[C@H]1CN([C@@H](C)CO)C(=O)CCCn2nncc2CO[C@@H]1CN(C)C(=O)Nc1ccccc1C(F)(F)F	inactive: 0.975
N#Cc1c(-c2ccccc2)no[n+]1[O-]	inactive: 0.992
C[C@@H]1CCCCO[C@H](CN(C)S(=O)(=O)c2cn(C)cn2)[C@@H](C)CN([C@@H](C)CO)C(=O)c2cc(NS(=O)(=O)c3cccs3)ccc2O1	inactive: 0.995
Oc1ccc(F)c2ccccc12	inactive: 0.903
COc1cccc(S(=O)(=O)Nc2ccc3c(c2)[C@@H]2C[C@H](CC(=O)NC4CCCCC4)O[C@H](CO)[C@@H]2O3)c1	inactive: 0.99
CC(=O)O[C@@H]1CC[C@]2(C)[C@H]3CC[C@]4(C)C(=CC(=O)O[C@H]4c4ccoc4)[C@]3(C)[C@H](OC(C)=O)C[C@H]2C1(C)C	inactive: 1.01
C[C@H](CO)N1C[C@H](C)[C@@H](CN(C)S(=O)(=O)c2cccs2)Oc2ccc(NC(=O)CCCN(C)C)cc2C1=O	inactive: 0.991

SMILES	relative growth
O=C(CCCCCCC(=O)Nc1ccc([C@H]2O[C@@H](CSc3ccncc3)C[C@H](c3ccccc3)O2)cc1)NO	inactive: 0.974
O=C(Cn1ccc([N+](=O)[O-])n1)Nc1cccnc1	inactive: 1.02
COc1ccc(NC(=O)Nc2ccc3c(c2)C(=O)N([C@@H](C)CO)C[C@@H](C)[C@H](CN(C)Cc2ccc(Oc4ccccc4)cc2)O3)cc1	inactive: 0.985
COC(=O)C1=C2CC[C@H](COC(=O)NCCCCCC(=O)NO)NC(=O)N[C@@H](Cc3ccccc3)c3cn(nn3)C[C@@H](Cc3ccccc3)NC(=O)c3oc(c(C(=O)OC)c3C(=O)OC)CC[C@H](COC(=O)NCCCCCC(=O)NO)NC(=O)N[C@@H](Cc3ccccc3)c3cn(nn3)C[C@@H](Cc3ccccc3)NC(=O)C(=C1C(=O)OC)O2	inactive: 0.992
O=C(O)Cn1nnnc1-c1ccsc1	inactive: 1.02
Cc1ccc(S(=O)(=O)N(C)C[C@H]2Oc3ccc(NC(=O)CCCN(C)C)cc3CC(=O)N([C@@H](C)CO)C[C@H]2C)cc1	inactive: 0.987
C=CC(=O)Nc1cccc(Nc2nc(Nc3ccc(NC4CN(CCF)C4)cc3OC)ncc2C(F)(F)F)c1	inactive: 0.998
Cc1noc(C)c1S(=O)(=O)Nc1cccc2c1O[C@H](CN(C)C(=O)NC(C)C)[C@H](C)CN([C@H](C)CO)C2=O	inactive: 1.01
Cc1noc(C)c1NC(=O)N(C)C[C@H]1OCCCC[C@@H](C)Oc2ccc(NC(=O)Cc3ccccc3)cc2C(=O)N([C@@H](C)CO)C[C@H]1C	inactive: 1.01
COc1ccc([Si](C)(C)[C@@H]2[C@@H](CC(=O)N3Cc4ccccc4C[C@H]3CO)O[C@]3(C(=O)N(Cc4cccc(N5C(=O)c6cccc7cccc5c67)c4)c4ccccc43)[C@H]2C)cc1	inactive: 1.04
CC(=O)O[C@H]1[C@H](O)[C@@H](O[C@@H]2C[C@](C)(O[C@H]3O[C@H](C)[C@H](O)[C@H](O)[C@@H]3O[C@@H]3O[C@H](C)[C@@H](O)[C@H](O)[C@@H]3O)O[C@@H]3CC[C@H]4C(C)(C)CCC[C@]4(C)[C@@H]23)O[C@@H](CO)[C@H]1O	inactive: 1
CC(C)NC(=O)N(C)C[C@@H]1Oc2ccc(NC(=O)Cc3ccccc3)cc2CC(=O)N([C@H](C)CO)C[C@H]1C	inactive: 0.977
COc1ccc(S(=O)(=O)Nc2ccc3c(c2)C(=O)N([C@@H](C)CO)C[C@@H](C)[C@@H](CN(C)Cc2ccc(Cl)c(Cl)c2)O3)cc1	inactive: 0.967
COc1ccc(NC(=O)Nc2ccc3c(c2)CC(=O)N([C@@H](C)CO)C[C@@H](C)[C@@H](CN(C)Cc2ccc(Cl)c(Cl)c2)O3)cc1	inactive: 1.01
C[C@H]1CN([C@@H](C)CO)C(=O)Cc2cc(NC(=O)Nc3ccc4c(c3)OCO4)ccc2O[C@@H]1CN(C)Cc1ccc(-c2ccccc2)cc1	inactive: 1
NCC[C@@H]1CC[C@@H](NC(=O)C2CC2)[C@H](CO)O1	inactive: 0.993
CCCNC(=O)N(C)C[C@@H]1Oc2cc(-c3ccccc3F)ccc2S(=O)(=O)N([C@H](C)CO)C[C@H]1C	inactive: 0.995
C[C@@H]1CCCCO[C@@H](CN(C)C(=O)Cc2ccccc2)[C@@H](C)CN([C@@H](C)CO)C(=O)c2cc(NS(=O)(=O)c3ccc(Cl)cc3)ccc2O1	inactive: 1.03
